According to PubChem BioAssay AID1346428 (National Center for Advancing Translational Sciences (NCATS), 2018):
Hit rate of the full screen: of about 48,000 compounds, about 1,200 (2.5%) were called active. Roughly 2% stayed inconclusive and do not appear here.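 Rule for the calls: active = activation of at least 60% and not above a set upper limit (about 1 call in 100 departs from these limits); inconclusive = activation of 40% to 60%, or above that upper limit; inactive = activation under 40%.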 This is one part of the list.

Target: Probable G-protein coupled receptor 32 (Homo sapiens) (UniProt O75388)
Chain of UniProt O75388 (O75388 whole entry, looked up): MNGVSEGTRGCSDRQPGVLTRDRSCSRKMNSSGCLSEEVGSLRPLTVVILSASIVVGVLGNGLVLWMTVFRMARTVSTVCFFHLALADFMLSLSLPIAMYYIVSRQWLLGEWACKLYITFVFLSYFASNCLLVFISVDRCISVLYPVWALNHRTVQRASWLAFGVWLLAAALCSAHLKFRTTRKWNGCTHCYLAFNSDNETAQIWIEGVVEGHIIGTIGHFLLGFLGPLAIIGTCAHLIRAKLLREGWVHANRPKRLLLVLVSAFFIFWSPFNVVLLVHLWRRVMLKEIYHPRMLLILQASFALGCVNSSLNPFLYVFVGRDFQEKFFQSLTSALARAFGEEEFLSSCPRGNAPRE
Test: qHTS for Agonists of Human Resolvin D1 Receptor DRV1; note: 0% is about no effect
Details: CHO-K1 GPR32 beta-arrestin PathHunter luminescence, 90 min; at 76.9 µM; active compounds read high; zero percent set by DMSO-only wells
Outline: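 Luminescent readout of beta-Gal complementation quantifies ligand-induced beta-arrestin association with GPR32 in CHO-K1 cells; 90 min compound incubation at 37 °C, detection 1 h at room temperature.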

| SMILES | activation |
| --- | --- |
| O=C(NCc1ccc2c(c1)CCN2C(=O)c1ccc(F)cc1)c1ccc(Br)o1 | inactive: -11.5% |
| COc1cc(OC)cc(C(=O)Nc2cc3nn(-c4ccccc4)nc3cc2Cl)c1 | inactive: -19.2% |
| CCCS(=O)(=O)c1ncc(Cl)c(C(=O)N(Cc2ccccc2)Cc2ccco2)n1 | inactive: -15.6% |
| CCOc1ccc(-c2oc3ccccc3c(=O)c2O)cc1OCC | inactive: 15.2% |
| COc1ccccc1NC(=O)C1=C(C)Nc2c(C(=O)Nc3ccc(F)cc3)cnn2C1c1ccc(Cl)cc1 (centres undefined) | inactive: -11.6% |
| O=C(Nc1ccc(S(=O)(=O)Nc2ccccc2)cc1)N1CCCC1 | inactive: 19% |
| COc1ccccc1NC(=O)N1CC(=O)Nc2sc3c(c2C1c1ccccc1)CCCC3 (centres undefined) | inactive: -2.3% |
| Nc1ncnc2c1ncn2C1CCCO1 (centres undefined) | inactive: -4.74% |
| Cn1c(=O)c2c(nc(SCC(=O)Nc3ccc(OC(F)(F)F)cc3)n2Cc2cccc(C(F)(F)F)c2)n(C)c1=O | inactive: -7.75% |
| COc1ccc(-c2noc(-c3ccc(NCc4ccc(C)cc4)c([N+](=O)[O-])c3)n2)cc1OC | inactive: 8.23% |
| O=S1(=O)c2cccc3cccc(c23)N1CCCN1CCN(c2ccc(F)cc2)CC1 | inactive: -2.33% |
| Cc1ccc(S(=O)(=O)Nc2cc3c(cc2C)n(C)c(=O)c(=O)n3C)cc1 | inactive: -3.05% |
| CCOC(=O)c1c(N)n(-c2ccc(C)c(C)c2)c2nc3ccccc3nc12 | inactive: 20.5% |
| Cc1ccc(CSC2=Nc3ccccc3C3=NC(CCC(=O)N4CCN(c5ccccc5)CC4)C(=O)N23)cc1 (centres undefined) | inactive: -27.1% |
| Cc1cc(NC(=O)N2CC=C(c3c[nH]c4ccccc34)CC2)ccc1Br | inactive: -9.14% |
| O=C(Cn1c(=O)n(-c2ccc(F)cc2)c(=O)c2sc3ccccc3c21)N1CCCC1 | inactive: -2.55% |
| CCOC(=O)c1sc2ccccc2c1S(=O)(=O)Nc1c(C)cccc1C | inactive: -17.8% |
| Cn1nc(C(=O)NCc2ccccc2)c2c1-c1ccccc1SC2 | inactive: -16.8% |
| Cc1ccc(-c2onc(C)c2C)cc1S(=O)(=O)N1CCCCC1 | inactive: -1.08% |
| CCc1nn(CC(=O)NCCc2ccc(OC)cc2OC)c(=O)c2cc3sccc3n12 | inactive: -17.2% |
| COc1cccc(CNC(=O)Cn2cc3c(n2)-c2c(oc(C(=O)N4CCCC4)c2C)CC3)c1OC | inactive: -11.3% |
| COc1ccc(-n2nc(C(=O)N3CCC(C)CC3)c3c4ccccc4n(C)c3c2=O)cc1Cl | inactive: 3.39% |
| O=c1[nH]c(=O)c2ccccc2o1 | inactive: -2.32% |
| Cc1ccccc1NC(=O)CSc1nc(-c2ccc(F)cc2)c2cccc(C)c2n1 | inactive: -5.45% |
| COc1cc(CNC(=O)c2cc(-c3ccccc3)n[nH]2)cc(OC)c1OC | inactive: 6.87% |
| COc1ccc(-c2cc3nc(C)c(CCC(=O)N4CCN(c5cccc(Cl)c5)CC4)c(C)n3n2)c(OC)c1 | inactive: 3.78% |
| O=C(NCc1cccs1)c1ccc2c(c1)N(Cc1ccccc1Cl)C(=O)c1ccccc1S2 | inactive: -12.6% |

| SMILES | activation |
| --- | --- |
| O=C(CN1C=NS(=O)(=O)c2ccccc21)Nc1ccc(F)cc1 | inactive: 15.3% |
| CCOc1ccccc1NC(=O)C(Cc1ccccc1)NS(=O)(=O)c1ccc2c(c1)oc(=O)n2C (centres undefined) | inactive: -5.9% |
| CC(C)Cn1c(=O)c2ccccc2n2c(CCC(=O)NCc3ccccc3Cl)nnc12 | inactive: -4.05% |
| COc1ccc(-c2cc(C(=O)OCC(=O)c3ccc(C)cc3)c3cccc(Cl)c3n2)cc1 | inactive: -3.86% |
| Cc1ccccc1-c1ncnn1-c1sc2c(c1C#N)CCCCC2 | active: 106% |
| COc1ccc(CNC(=O)c2cc3cc(C)ccc3n2C)cc1 | inactive: 15.4% |
| O=C(CN1CCNCC1)NC1CCCCC1 | inactive: -24.3% |
| CC(=O)NCCNC(=O)CCCc1nnc2n(C)c(=O)c3sccc3n12 | inactive: 7.85% |
| Cc1sc2c(c1C)c(=O)n(CCc1ccccc1)c(=O)n2Cc1cccc(F)c1 | inactive: -8.22% |
| CCCCN(CCCC)C(=O)CN(C)S(=O)(=O)c1ccc2c(c1)c(=O)n(C)c(=O)n2C | inactive: 15.6% |
| CC(Nc1ccc(-c2nc(-c3ccncc3)no2)cc1[N+](=O)[O-])c1ccccc1 (centres undefined) | inactive: 16.6% |
| O=C(NCc1ccccc1Br)c1ccc2nc(N3CCCCC3)sc2c1 | inactive: 2.8% |
| O=C(Nc1cc(F)ccc1F)C1CCN(c2nc3ccccc3n3cccc23)CC1 | inactive: -1.23% |
| Cc1ccc(-n2c(=O)c3c(c4cc(C)ccc4n3C)n(CC(=O)NCc3ccccc3Cl)c2=O)cc1 | inactive: -4.07% |
| CCCCOC(=O)c1ccc(Nc2ncnc3[nH]ncc23)cc1 | inactive: 32.3% |
| COc1ccc2oc(=O)cc(CN3CCN(c4ccc(F)cc4)CC3)c2c1 | inactive: -18.3% |
| CCCCNC(=O)C(CC)Sc1nnc(-c2cccc(F)c2)c(-c2cccc(F)c2)n1 (centres undefined) | inactive: -17.8% |
| COc1ccc(CCC(=O)NC2CC(=O)N(c3ccc(C)cc3)C2)cc1 (centres undefined) | inactive: -0.565% |
| CCOC(=O)c1ccc(CN(Cc2ccccc2)S(=O)(=O)c2ccc(C)cc2)cc1 | inactive: -26.2% |
| Cc1nc2c(C(=O)NCCc3ccc(Cl)cc3)cnn2c(C)c1Cc1c(F)cccc1Cl | inactive: -11.2% |
| CCOC(=O)c1ccc(NC(=O)CN(c2ccc(C)cc2)S(=O)(=O)c2c(C)noc2C)cc1 | inactive: -4.61% |
| Cc1cccc(NC(=O)Cn2c(=O)n(-c3ccccc3Cl)c(=O)c3c(C)c(C(=O)N(C)C)sc32)c1 | inactive: -7.85% |
| Cc1cc(C)cc(N2CC(c3nc(-c4ccccc4C)no3)CC2=O)c1 (centres undefined) | inactive: -0.904% |
| CC(=O)Nc1c(C)nn(-c2ccccc2)c1N1CCC(C(=O)NCc2ccc(Cl)cc2)CC1 | inactive: -18.6% |
| Cc1cc(OCC(=O)NCC2(N3CCN(C)CC3)CCCCC2)cc(C)c1Cl | inactive: -15.2% |
| COc1ccc(-c2cc(NCc3ccc(F)cc3)n3cnnc3n2)cc1 | inactive: 4.24% |
| O=c1[nH]c(=O)n([C@H]2O[C@H](CO)[C@@H](O)[C@@H]2O)cc1/C=C\Br | inactive: -5.01% |
